Publication PMC7645679
These are yes or no findings as the source states them, for the method shown. Where a sequence is shown, tags or fusion partners need not be part of it.

Molecular target: T1, CTCF ΔN(13–33), GFP fusion (F3H) (mouse), Q61164
T1 chain: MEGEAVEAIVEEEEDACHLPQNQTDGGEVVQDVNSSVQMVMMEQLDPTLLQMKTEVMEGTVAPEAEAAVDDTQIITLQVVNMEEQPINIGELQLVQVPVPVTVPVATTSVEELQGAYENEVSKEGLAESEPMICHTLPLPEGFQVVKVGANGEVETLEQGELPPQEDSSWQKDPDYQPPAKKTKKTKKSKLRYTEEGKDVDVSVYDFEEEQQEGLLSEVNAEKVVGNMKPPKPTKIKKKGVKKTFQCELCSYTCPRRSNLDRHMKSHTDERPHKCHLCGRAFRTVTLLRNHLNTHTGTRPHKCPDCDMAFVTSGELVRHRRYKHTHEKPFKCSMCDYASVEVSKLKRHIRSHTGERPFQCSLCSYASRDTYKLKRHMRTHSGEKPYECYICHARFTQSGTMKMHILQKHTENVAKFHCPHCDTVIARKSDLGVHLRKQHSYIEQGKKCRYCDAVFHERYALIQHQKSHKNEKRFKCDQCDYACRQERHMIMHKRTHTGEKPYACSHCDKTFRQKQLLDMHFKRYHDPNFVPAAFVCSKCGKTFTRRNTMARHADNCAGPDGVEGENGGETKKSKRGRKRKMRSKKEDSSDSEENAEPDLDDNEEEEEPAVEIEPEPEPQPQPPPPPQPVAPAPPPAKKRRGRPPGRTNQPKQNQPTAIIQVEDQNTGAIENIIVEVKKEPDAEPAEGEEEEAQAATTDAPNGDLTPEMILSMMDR
Test: fluorescent three-hybrid (F3H); GFP-tagged bait tethered to a LacO array by GFP nanobody–LacR in BHK-LacO cells; recruitment of mKate2-tagged prey read as Pearson correlation of green and red channels at the array; cells fixed 24 h after transfection
Settings: remark: other sources report otherwise

binding: no binding
B1: PDS5A (mouse), mKate2 fusion, Q6A026 1-1332 (protein)
chain: MDFTQPKPATALCGVVSADGKIAYPPGVKEITDKITTDEMIKRLKMVVKTFMDMDQDSEDEKQQYLPLALHLASEFFLRNPNKDVRLLVACCLADIFRIYAPEAPYTSHDKLKDIFLFITRQLKGLEDTKSPQFNRYFYLLENLAWVKSYNICFELEDCNEIFIQLFRTLFSVINNSHNTKVQMHMLDLMSSIIMEGDGVTQELLDSILINLIPAHKNLNKQSFDLAKVLLKRTVQTIEACIANFFNQVLVLGRSSVSDLSEHVFDLIQELFAIDPQLLLSVMPQLEFKLKSNDGEERLAVVRLLAKLFGSKDSDLATQNRPLWQCFLGRFNDIHVPVRLESVKFASHCLMNHPDLAKDLTEYLKVRSHDPEEAIRHDVIVTIITAAKRDLALVNDQLLGFVRERTLDKRWRVRKEAMMGLAQLYKKYCLHGEAGKEAAEKVSWIKDKLLHIYYQNSIDDKLLVEKIFAQYLVPHNLETEERMKCLYYLYASLDPNAVKALNEMWKCQNMLRSHVRELLDLHKQPTSEANCSAMFGKLMTIAKNLPDPGKAQDFVKKFNQVLGDDEKLRSQLELLISPTCSCKQADVCVREIARKLANPKQPTNPFLEMVKFLLERIAPVHIDSEAISALVKLMNKSIEGTADDEEEGVSPDSAIRSGLELLKVLSFTHPTSFHSAETYESLLQCLRMEDDKVAEAAIQIFRNTGHKIETDLPQIRSTLIPILHQKAKRGTPHQAKQAVHCIHAIFSNKEVQLAQIFEPLSRSLNADVPEQLITPLVSLGHISMLAPDQFASPMKSVVANFIVKDLLMNDRSTGEKNGKLWSPDEEVSPEVLAKVYLLRLLVRWLLGMKNNQSKSANSTLRLLSAMLVSEGDLTEQKRISKSDMSRLRLAAGSAIMKLAQEPCYHEIITPEQFQLCALVINDECYQVRQIFAQKLHKALVKLLLPLEYMAIFALCAKDPVKERRAHARQCLLKNISIRREYIKQNPMATEKLLSLLPEYVVPYMIHLLAHDPDFTRSQDVDQLRDIKECLWFMLEVLMTKNENNSHAFMKKMAENIKLTRDAQSPDESKTNEKLYTVCDVALCVINSKSALCNADSPKDPVLPMKFFTQPEKDFCNDKSYISEETRVLLLTGKPKPTGVLGTVNKPLSATGRKPYVRSAGTETGSNINANSELSPSAGSRSREQSSEASETGVSENEENPVRIISVTPVKNIDTVKNKEINSDQSTQGNISSDRGKKRIVTAAGAENIQKPDEKVDESGPPAPSKPRRGRRPKSESQGNATKNDDLNKPVSKGRKRAAGSQESLEAGNAKAPKLQDGAKKAVPAERQIDLQR
